From PubChem BioAssay AID686978 (National Center for Advancing Translational Sciences (NCATS), 2013)
Several values for one entry are separate records, joined by “and”; a condition that tells them apart may be missing. Identical values can stand only once. About 64,000 (15%) of roughly 420,000 compounds were called active. The shares of active, inactive and inconclusive entries below differ from those in the screen. Calls follow the shape of the dose curve; as a rule, active = well fitted inhibition curve with a large enough effect; inconclusive = small, poorly fitted or top-dose-only effect; inactive = flat fitted curve, though single readings scatter. Potencies beside an inconclusive call are fits to weak or partial responses and may not hold up.

Test: qHTS for Inhibitors of human tyrosyl-DNA phosphodiesterase 1 (TDP1): qHTS in cells in absence of CPT; also: nearly all actives have a fitted effect of over 55% in size
Conditions: DT40 Tdp1-/- hTDP1 cells, no CPT, ATP luminescence, 48 h; series mostly up to 46.2 µM
Method in brief: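 Growth of hTDP1-complemented DT40 Tdp1-knockout cells is measured by ATP luminescence after at least 48 hr compound exposure at 37 °C, with DMSO substituting for the 20 nM CPT used in the parallel screen.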
Potency is read from the fitted curve at half-maximal effect; tags tell the direction and shape of the fitted curve.

SMILES	Potency
CC(=O)Nc1cnc(-c2ccccc2C(F)(F)F)cn1	inactive
O=C(Nc1cccc(C(=O)Nc2ccc(F)cc2F)c1)c1ccccc1	inconclusive: 29.1 µM [inhibitor, single point]
CSc1ncc(C(=O)Nc2cccc(C)c2C)c(C)n1	inactive
COc1ccc2[nH]cc(CCNc3ncnc4ccc(-c5ccccc5CN(C)C)cc34)c2c1	inactive
Cc1cn([C@H]2C[C@H](O)[C@@H](CCC(=O)NCCCn3ccnc3)O2)c(=O)[nH]c1=O	inactive
Cc1ccc(S(=O)(=O)N2CCOC2CNC(=O)C(=O)NCCc2ccccc2)cc1 (centres undefined)	inactive
CCOc1ccc(CCN2C(=S)N([C@@H](Cc3ccc(O)cc3)CN3CCC[C@@H]3CN3C(=S)NC[C@@H]3Cc3ccc(O)cc3)C[C@@H]2Cc2ccc(O)cc2)cc1	inconclusive: 29.1 µM [inhibitor, single point]
CCc1cccc(NC(=O)Cn2c(=O)n(CCc3ccc(OC)c(OC)c3)c(=O)c3ccccc32)c1	inactive
O=C(Cc1cccc2ccccc12)N/N=C/c1ccc(OC(=O)/C=C/c2ccco2)cc1	inconclusive: 23.1 µM [inhibitor, single point]
N#CC1=C(N)Oc2cc3c(cc2C1c1ccc(Cl)cc1)OCO3 (centres undefined)	inconclusive: 18.4 µM [inhibitor, partial curve]
COc1ccc(CCn2c(N)c(C(=O)NCc3ccco3)c3nc4ccccc4nc32)cc1	active: 13 µM
Cc1cc(C)n(-c2nc3c(c(=O)[nH]c(=O)n3C)n2CCc2ccccc2)n1	inconclusive: 29.1 µM [inhibitor, single point]
Oc1cccc(Nc2c3ccccc3nc3ccccc23)c1	active: 1.84 µM
CCOC(=O)Cn1cccc1-c1nc(-c2ccc(OC)cc2)c(-c2ccc(OC)cc2)s1	inactive
OC[C@H]1O[C@@H](c2nc(-c3ccc(C4OCCO4)cc3)no2)[C@H](O)[C@@H]1O	inconclusive: 16.4 µM [inhibitor, single point]
Cc1cc2nc3c(=O)[nH]c(=S)[nH]c3nc2cc1NC(=O)C(F)(F)F	inconclusive: 29.1 µM [inhibitor, single point]
Cc1cccc(N2CCN(S(=O)(=O)c3ccc4c(c3)NC(=O)C(C)S4)CC2)c1C (centres undefined)	inconclusive: 29.1 µM [inhibitor, single point]
COc1ccc(CC(=O)NCc2ccc3c(c2)CCN3C(=O)c2ccc(C)cc2)cc1OC	active: 11.6 µM
CCOC(=O)c1c(NC(=O)COC(=O)c2ccc(Cl)nc2)sc(C(=O)N(C)C)c1C	inconclusive: 16.4 µM [inhibitor, single point]
CC(C)CNC(=O)NC(=O)COC(=O)c1cccc(NS(=O)(=O)c2ccc(F)c(F)c2)c1	inconclusive: 29.1 µM [inhibitor, partial curve]
C(C#CCCCCCCCCC[n+]1ccccc1)#CCCCCCCCCC[n+]1ccccc1	active: 820 nM and active: 3.26 µM
CC1=NN(C(=O)c2ccc(Cn3cc(Br)c([N+](=O)[O-])n3)o2)C(O)(C(F)(F)F)C1 (centres undefined)	active: 2.59 µM
COc1ccc(C(=O)OCC(=O)NC(=O)Nc2ccccc2F)c(OC)c1	inactive
O=[N+]([O-])c1ccc2[nH]c(O)c(N=Nc3ccc(F)cc3)c2c1	inactive
CCOC(=O)c1c(C)[nH]c(C)c1S(=O)(=O)N1CCCC(C(=O)Nc2ccc(OC)c(Cl)c2)C1 (centres undefined)	inactive

SMILES	Potency
CN(C)c1ncccc1-c1nc2ccccc2s1	inactive
CC1(C)CC(=O)C2=C(C1)N(c1ccc(F)cc1)C(=O)CC2c1ccsc1 (centres undefined)	inactive
CC(NC(=O)c1cnccn1)c1ccc(S(N)(=O)=O)cc1 (centres undefined)	inconclusive: 16.4 µM [inhibitor, single point]
CCN(C(=O)C=Cc1ccco1)c1ccccc1	inconclusive: 23.1 µM [inhibitor, partial curve]
CC(=O)c1ccc(N2CCC(c3cc(-c4ccc(Cl)cc4)n[nH]3)CC2)c([N+](=O)[O-])c1	active: 4.61 µM
CCCC1CCC(=NNS(=O)(=O)c2ccc(C)c([N+](=O)[O-])c2)CC1 (centres undefined)	inconclusive: 14.6 µM [inhibitor, partial curve]
Oc1ccc(-c2nnc(-c3ccc(O)cc3)nn2)cc1	inactive
Cc1cc2occ(CC(=O)N(C)CC(=O)Nc3ccccc3Br)c2cc1C	inconclusive: 29.1 µM [inhibitor, single point]
COCCCNC(=O)Cn1cc2c(n1)CCC(C)C2 (centres undefined)	inactive
OC(COCc1ccc(Cl)cc1)CN1CCCCC1 (centres undefined)	inactive
Cc1ccc(C(=O)NCC(=O)N/N=C/c2sccc2C)cc1[N+](=O)[O-]	inconclusive: 20.6 µM [inhibitor, single point]
CC(C)Nc1nc(Nc2ccc(F)cc2)c2sccc2n1	inconclusive: 20.6 µM [inhibitor, partial curve, poor fit]
Cc1c(-c2nn(C)c(=O)c3ccccc23)oc2ccc(F)cc2c1=O	inconclusive: 20.6 µM [inhibitor, single point]
CN1CCc2c(sc(NC(=O)c3ccc(S(=O)(=O)N4CCOCC4)cc3)c2C(N)=O)C1	inactive
COc1ccc(NC(=O)CN2C(=O)NC3(CC(C)CC(C)(C)C3)C2=O)cc1S(=O)(=O)N1CCCCC1 (centres undefined)	inconclusive: 23.1 µM [inhibitor, single point]
O=C(c1cc(-c2ccc(Br)cc2)nc2ccccc12)N1CCC1	inconclusive: 23.1 µM [inhibitor, partial curve, poor fit]
Cc1sc2nc(C3CC3)nc(N3CCN(C(=O)c4ccccc4F)CC3)c2c1C	inconclusive: 25.9 µM [inhibitor, single point]
COCCn1c(=O)c(-c2ccc(Cl)cc2)nc2cncnc21	inactive
O=C(Nc1ccccc1)c1sc2cc(C(F)(F)F)cnc2c1-c1cccs1	active: 11.6 µM
COc1cc(CN(C)c2ccc(S(=O)(=O)N3CCCC3)cn2)ccc1OC(F)F	inconclusive: 29.1 µM [inhibitor, single point]
Clc1cccc(N2CCN(CCCN3CCN(c4ccccc4)CC3)CC2)c1	inconclusive: 18.4 µM [inhibitor, single point]
Cc1ccnn1CCC(=O)O	inactive
CCc1ccc(NC(=O)c2cc3sc(Cl)cc3n2C)cc1	inconclusive: 16.4 µM [inhibitor, single point]
Cc1ccc(OCCn2cc(/C=C(\C#N)C(=O)NCC3CCCO3)c3ccccc32)cc1C (centres undefined)	active: 7.31 µM
COc1cc(CNc2ncc(-c3ccc(Br)cc3)n2C)cc(OC)c1OC	inconclusive: 20.6 µM [inhibitor, single point]

SMILES	Potency
Cc1ccc(S(=O)(=O)Nc2ccc(Br)cc2C(NCC(=O)O)c2ccccc2)cc1 (centres undefined)	inactive
COc1cccc(CC(=O)OCC(=O)N(C)CC(=O)Nc2ccc(Cl)c(C(F)(F)F)c2)c1	inactive
Cc1ccc(C(=O)NCCc2sc(C)nc2C)cc1	inactive
Nc1ccc(Cc2ccc(N)c(O)c2)cc1O	inconclusive: 18.4 µM [inhibitor, single point]
Cc1cc(N2CCCC2=O)cc(C)c1S(=O)(=O)Nc1c(C)nn(C)c1C	inactive
Cc1cccc(N2CCN(C(=O)C3CCN(S(=O)(=O)c4cccs4)CC3)CC2)c1C	active: 14.6 µM
CCn1cc(C2CC(=O)NC2=O)c2ccccc21 (centres undefined)	inactive
Cc1ccc(N=C2C(=O)Nc3ccccc32)cc1C	inactive
COc1ccc(NC(=O)CSc2ccccc2)c(OC)c1	inconclusive: 18.4 µM [inhibitor, single point]
O=C(Nc1ccc(CN2CCOCC2)cc1)c1ccc(Br)o1	inactive
CCCCCCSc1ccc(-c2nc3ccc(Cl)cn3c2NCCCC)cc1OC	inconclusive: 37.2 µM [inhibitor, single point] and inconclusive: 29.1 µM [inhibitor, single point]
Cn1c(CC(=O)NNC(=O)c2ccc(F)cc2F)nc2ccccc21	inconclusive: 23.1 µM [inhibitor, single point]
COc1ccc2c(c1)c(/C=N/Nc1ccc(C(=O)O)cc1)c(C)n2C	inactive
CCN(CC)C(=O)C1CCCN(Cc2cccc(F)c2)C1 (centres undefined)	inactive
Cc1ccccc1Nc1nnc(-c2ccc(C)c(S(=O)(=O)N3CCOCC3)c2)c2ccccc12	active: 16.4 µM
Cn1c(/C=C/c2ccc(Cl)cc2)c([N+](=O)[O-])c(=O)n(C)c1=O	active: 20.6 µM
c1ccc2nc(N3CCCC3)c(N3CCCC3)nc2c1	inconclusive: 10.3 µM [inhibitor, partial curve, poor fit]
Cc1nc(N2CCCCC2)c2c(-c3cccs3)csc2n1	inconclusive: 23.1 µM [inhibitor, partial curve]
CC(=O)Nc1cccc(OCC(O)Cn2c(C)nc3ccccc32)c1 (centres undefined)	active: 16.4 µM
COc1ccccc1CNC(=O)c1cc(=O)c2ccccc2o1	inconclusive: 29.1 µM [inhibitor, partial curve]
CCNc1ncc2ncc(=O)n(Cc3cccs3)c2n1	inconclusive: 29.1 µM [inhibitor, single point]
CCc1nc2ccc(C(=O)NCCCN3CCCC3=O)cn2c1N(C)CCC(C)C	inconclusive: 25.9 µM [inhibitor, single point]
Cc1ccc(N(C)S(=O)(=O)c2cccc(C(=O)NCC(c3ccco3)N3CCCC3)c2)cc1 (centres undefined)	inconclusive: 16.4 µM [inhibitor, partial curve]
O=C(CCC(=O)Nc1ccc(Cl)cc1)N/N=C/c1ccc2c(c1)OCO2	inactive
